{"source": "PubChem BioAssay AID504832", "about": "(National Center for Advancing Translational Sciences (NCATS), 2011)", "note": "Among all 310,000 compounds or so, about 18,000 (5.8%) were called active. The shares of active, inactive and inconclusive entries below differ from those in the screen. Calls come from the whole dose curve; as a rule, active = well fitted inhibition curve with a large enough effect; inconclusive = small, poorly fitted or top-dose-only effect, or another doubt; inactive = no such curve, though single readings can be large or run the other way. Potencies of inconclusive entries are left out as doubtful fits. Potency is the fitted concentration of half-maximal effect; tags give direction and shape of the fitted curve.", "data": [{"assay": "Primary qHTS for delayed death inhibitors of the malarial parasite plastid, 48 hour incubation", "conditions": "P. falciparum luciferase growth in erythrocytes; series mostly up to 28.7 µM", "summary_of_the_method": "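Luciferase-expressing P. falciparum in infected erythrocytes (2% hematocrit, 0.1% parasitemia final) in RPMI 1640/0.5% Albumax were exposed to compound for 48 hours at 37 C, 5% CO2; growth read as luminescence.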", "values": [{"smiles": "CCOC(=O)c1c(C)[nH]c(C)c1S(=O)(=O)N1CCCCC1", "Potency": "inactive"}, {"smiles": "O=C(CNC(=O)Cc1ccccc1)NCC(=O)OCC(=O)c1ccccc1Cl", "Potency": "inconclusive [inhibitor, full curve, poor fit]"}, {"smiles": "COc1cc(S(=O)(=O)N2CCN(c3ccccc3F)CC2)c(OC)cc1Cl", "Potency": "inconclusive [inhibitor, partial curve, poor fit]"}, {"smiles": "COC(=O)c1ccccc1NC(=O)CNc1cc(Cl)ccc1N1CCOCC1", "Potency": "inconclusive [inhibitor, partial curve, poor fit]"}, {"smiles": "O=C(NC1CC1)c1c[nH]c2ccc(S(=O)(=O)Nc3cccc(C(F)(F)F)c3)cc2c1=O", "Potency": "inconclusive [inhibitor, single point]"}, {"smiles": "CCC1(C)Cc2c(sc3c2c(=O)n(C)c2nnc(SCCc4ccccc4)n32)CO1", "note": "(stereo not drawn)", "Potency": "inconclusive [inhibitor, partial curve]"}, {"smiles": "O=C(Cn1c(=O)n2ncnc2c2c3c(sc21)CCCC3)c1ccccc1", "Potency": "active: 11.7 µM"}, {"smiles": "CC1(C)Cc2cccc(OCC(=O)NCCc3ccccc3)c2O1", "Potency": "inconclusive [inhibitor, single point]"}, {"smiles": "Cc1cc(SCC(=O)N2CCN(C(=O)c3ccco3)CC2)c(C)cc1Br", "Potency": "inconclusive [inhibitor, single point]"}, {"smiles": "CC1CCN(CC(O)COC2CC(C)CCC2C(C)C)CC1", "note": "(stereo not drawn)", "Potency": "active: 11.7 µM"}, {"smiles": "CNC(=O)/C(C#N)=C/c1c(N2CCN(c3ccccc3)CC2)nc2c(C)cccn2c1=O", "Potency": "inconclusive [inhibitor, partial curve, poor fit]"}, {"smiles": "Cc1ccc(S(=O)(=O)Oc2ccc(/C=N/NC(=O)c3nn(C)cc3Cl)cc2)cc1", "Potency": "inconclusive [inhibitor, single point]"}, {"smiles": "CCn1c(SCC(=O)Nc2ccccc2N2CCOCC2)nnc1-c1ccccc1", "Potency": "inconclusive [inhibitor, partial curve, poor fit]"}, {"smiles": "Cc1ccc2[nH]c3c(c2c1)CN(C(=O)CN1CCCc2ccccc21)CC3", "Potency": "active: 4.15 µM"}, {"smiles": "NC(=O)COC(=O)c1sc2ccccc2c1Cl", "Potency": "inactive"}, {"smiles": "OC(CNCc1ccccc1Cl)COc1ccc(F)cc1", "note": "(stereo not drawn)", "Potency": "inconclusive [inhibitor, single point]"}, {"smiles": "CCOC(=O)C1=C(Nc2ccccc2)CC(C)(O)C(C(=O)OCC)C1c1ccccc1", "note": "(stereo not drawn)", "Potency": "inconclusive [inhibitor, partial curve, poor fit]"}, {"smiles": "Cc1nn(CC(=O)N2CCCC2)c(=O)c2nn(-c3ccccc3)c(C)c12", "Potency": "inactive"}]}]}
